# Source: the supplement of paper PMC9135407
# Values joined by “and” are separate entries in the source; they are usually repeats but may differ in a detail not shown here. Equal entries are not always repeated. Structures can show the parent of a compound that is named as a salt. Out of some 5,800 compounds screened, about 620 (11%) showed activity.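 The calls were made as follows: active = score above a cut-off or among the top three wells of a plate; in these data no inactive exceeds 0.85.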 Only a part is listed here, and it is no random draw.
# Test system: primary human hepatic stellate cells (donor 1)
# Test: scaled lipid accumulation score (0 = DMSO-like, 1 = nortriptyline-like); higher = stronger HSC inactivation (lipid re-accumulation), active = hit call of the paper
# Settings: 48 h
# [1] = library stock concentration: 10 mM
# [2] = library stock concentration: 1 mM
# [3] = library stock concentration: 3.33 mM
# [4] = library stock concentration: 80 uM
# [5] = library stock concentration: 400 uM
# [6] = library stock concentration: 2 mM
structure (smiles),measurement,setting,value
Cc1ccc(C(=O)Nc2ccc(S(=O)(=O)O)c3cc(S(=O)(=O)O)cc(S(=O)(=O)O)c23)cc1NC(=O)c1cccc(NC(=O)Nc2cccc(C(=O)Nc3cc(C(=O)Nc4ccc(S(=O)(=O)O)c5cc(S(=O)(=O)O)cc(S(=O)(=O)O)c45)ccc3C)c2)c1 [Suramin sodium salt],scaled lipid accumulation score,[1],inactive: ≤ 0
Cc1ccc(C(=O)Nc2ccc(S(=O)(=O)O)c3cc(S(=O)(=O)O)cc(S(=O)(=O)O)c23)cc1NC(=O)c1cccc(NC(=O)Nc2cccc(C(=O)Nc3cc(C(=O)Nc4ccc(S(=O)(=O)O)c5cc(S(=O)(=O)O)cc(S(=O)(=O)O)c45)ccc3C)c2)c1 [Suramin],scaled lipid accumulation score,library stock concentration: 1.4 mM,inactive: 0.072
Cc1ccc(C(=O)Nc2ccc(S(=O)(=O)O)c3cc(S(=O)(=O)O)cc(S(=O)(=O)O)c23)cc1NC(=O)c1cccc(NC(=O)Nc2cccc(C(=O)Nc3cc(C(=O)Nc4ccc(S(=O)(=O)O)c5cc(S(=O)(=O)O)cc(S(=O)(=O)O)c45)ccc3C)c2)c1 [Suramin hexasodium salt],scaled lipid accumulation score,[1],inactive: ≤ -0.006
CCCCCCCCCCCCCCCC(=O)N[C@H]1CCOC1=O [N-hexadecanoyl-L-Homoserine lactone],scaled lipid accumulation score,[2],inactive: ≤ 0
CCc1cc(C(N)=S)ccn1,scaled lipid accumulation score,[1],inactive: ≤ 0
CCc1cc(C(N)=S)ccn1 [Ethionamide],scaled lipid accumulation score,,inactive: ≤ 0
same,scaled lipid accumulation score,[3],inactive: ≤ 0
same,scaled lipid accumulation score,[1],inactive: ≤ 0
same,scaled lipid accumulation score,library stock concentration: 12 mM,inactive: 0.022
N#CC(c1ccnc(NCCc2cccnc2)n1)c1nc2ccccc2s1 (stereo not drawn) [JNK Inhibitor V],scaled lipid accumulation score,[3],inactive: 0.329
N#CC(c1ccnc(NCCc2cccnc2)n1)c1nc2ccccc2s1 (stereo not drawn),scaled lipid accumulation score,[4],inactive: ≤ 0
same,scaled lipid accumulation score,[5],inactive: ≤ 0
same,scaled lipid accumulation score,[6],inactive: 0.058
same,scaled lipid accumulation score,[1],inactive: 0.62
OCc1ccc(O[C@@H]2O[C@H](CO)[C@@H](O)[C@H](O)[C@H]2O)cc1 [Gastrodin],scaled lipid accumulation score,[3],inactive: ≤ 0
same,scaled lipid accumulation score,[1],inactive: ≤ 0
O=C(NC(NC(=S)Nc1ccc(F)c([N+](=O)[O-])c1)C(Cl)(Cl)Cl)C(c1ccccc1)c1ccccc1 (stereo not drawn),scaled lipid accumulation score,[4],inactive: ≤ 0
same,scaled lipid accumulation score,[5],inactive: 0.081
same,scaled lipid accumulation score,[6],inactive: 0.01
same,scaled lipid accumulation score,[3],inactive: ≤ -0.009
same,scaled lipid accumulation score,[1],inactive: 0.019 and inactive: 0.171 and inactive: 0.352
CN(N=O)C(=O)N[C@@H](C=O)[C@@H](O)[C@H](O)[C@H](O)CO [Streptozotocin],scaled lipid accumulation score,,inactive: ≤ 0
CN(N=O)C(=O)N[C@@H](C=O)[C@@H](O)[C@H](O)[C@H](O)CO [Streptozocin],scaled lipid accumulation score,[1],inactive: ≤ -0.006
CC#CCOC(=O)c1c(C)nc2sc3c(c2c1N)CCC(O)C3 (stereo not drawn),scaled lipid accumulation score,[1],active: 1.72
CNCCC=C1c2ccccc2CCc2ccccc21 [Nortriptyline],scaled lipid accumulation score,[1],inactive: 0.72
CCN1CCN(Cc2ccc(NC(=O)c3ccc(C)c(/C=C/c4cnc5[nH]ccc5c4OC)c3)cc2C(F)(F)F)CC1,scaled lipid accumulation score,[6],active: 0.888
same,scaled lipid accumulation score,[1],active: 1.11
OC[C@H]1O[C@@H](OCCc2ccc(O)cc2)[C@H](O)[C@@H](O)[C@@H]1O [Salidroside],scaled lipid accumulation score,[3],inactive: ≤ 0
same,scaled lipid accumulation score,[1],inactive: ≤ 0
CCCCC[C@H](O)/C=C/[C@@H]1c2cc(CCCCC(=O)O)n(-c3ccccc3)c2C[C@H]1O [Piriprost (potassium salt)],scaled lipid accumulation score,[2],inactive: ≤ 0
C[C@H]1[C@H](NC(=O)/C(=N\OC(C)(C)C(=O)O)c2csc(N)n2)C(=O)N1S(=O)(=O)O [Aztreonam],scaled lipid accumulation score,,inactive: 0.037
same,scaled lipid accumulation score,[3],inactive: 0.024
same,scaled lipid accumulation score,library stock concentration: 4.7 mM,inactive: 0.043
same,scaled lipid accumulation score,[1],inactive: ≤ 0
Cl.C(=C(\CCN(C)C1)/C1)(/c2c(cccc2)C=C3)\c4c3cccc4 [Cyproheptadine hydrochloride],scaled lipid accumulation score,,active: 0.968
CCc1c2c(nc3ccc(OC(=O)N4CCC(N5CCCCC5)CC4)cc13)-c1cc3c(c(=O)n1C2)COC(=O)[C@]3(O)CC [Irinotecan],scaled lipid accumulation score,[3],inactive: 0.151
same,scaled lipid accumulation score,[1],inactive: 0.025
CCc1c2c(nc3ccc(OC(=O)N4CCC(N5CCCCC5)CC4)cc13)-c1cc3c(c(=O)n1C2)COC(=O)[C@]3(O)CC [Irinotecan HCl Trihydrate],scaled lipid accumulation score,[3],inactive: ≤ 0
same,scaled lipid accumulation score,[1],inactive: 0.228
CCc1c2c(nc3ccc(OC(=O)N4CCC(N5CCCCC5)CC4)cc13)-c1cc3c(c(=O)n1C2)COC(=O)[C@]3(O)CC,scaled lipid accumulation score,[1],inactive: 0.226
CCc1c2c(nc3ccc(OC(=O)N4CCC(N5CCCCC5)CC4)cc13)-c1cc3c(c(=O)n1C2)COC(=O)[C@]3(O)CC [IRINOTECAN HCl )trihydrate)],scaled lipid accumulation score,[1],active: 1.1
CCc1c2c(nc3ccc(OC(=O)N4CCC(N5CCCCC5)CC4)cc13)-c1cc3c(c(=O)n1C2)COC(=O)[C@]3(O)CC [Irinotecan hydrochloride],scaled lipid accumulation score,[1],inactive: 0.299
Cl.Cl.NC1(c2ccc(-c3nc4ccn5c(=O)[nH]nc5c4cc3-c3ccccc3)cc2)CCC1,scaled lipid accumulation score,[3],active: 1.35
same,scaled lipid accumulation score,[1],active: 1.02
Cc1ccc(/C(=C\CN2CCCC2)c2ccccn2)cc1 [trans-Triprolidine hydrochloride],scaled lipid accumulation score,[1],inactive: 0.207
Cc1ccc(/C(=C\CN2CCCC2)c2ccccn2)cc1 [Triprolidine hydrochloride],scaled lipid accumulation score,,inactive: 0.282
same,scaled lipid accumulation score,library stock concentration: 6.4 mM,inactive: 0.123
same,scaled lipid accumulation score,[1],inactive: ≤ 0 and inactive: 0.092
CC(C)(O/N=C(\C(=O)N[C@@H]1C(=O)N2C(C(=O)[O-])=C(C[n+]3ccccc3)CS[C@H]12)c1csc(N)n1)C(=O)O [Ceftazidime pentahydrate],scaled lipid accumulation score,,inactive: 0.085
Cc1c(Cl)cccc1Nc1ncccc1C(=O)O [Clonixin Lysinate],scaled lipid accumulation score,,inactive: ≤ 0
O=c1onc2n1-c1cc(Br)ccc1OC2,scaled lipid accumulation score,[2],inactive: ≤ 0
same,scaled lipid accumulation score,[1],inactive: 0.212
CCOC(=O)NCCCC(=O)NCCc1ccccc1,scaled lipid accumulation score,[3],inactive: ≤ -0.009
same,scaled lipid accumulation score,[1],inactive: ≤ 0
C[C@H]1O[C@H](O[C@H]2[C@H](O)[C@@H](O)[C@@H](O[C@H]3[C@H](O)[C@@H](O)C(O)O[C@@H]3CO)O[C@@H]2CO)[C@H](O)[C@@H](O)[C@@H]1N[C@H]1C=C(CO)[C@@H](O)[C@H](O)[C@H]1O (stereo partly drawn),scaled lipid accumulation score,[1],inactive: ≤ 0
C[C@H]1O[C@H](O[C@H]2[C@H](O)[C@@H](O)[C@@H](O[C@H]3[C@H](O)[C@@H](O)C(O)O[C@@H]3CO)O[C@@H]2CO)[C@H](O)[C@@H](O)[C@@H]1N[C@H]1C=C(CO)[C@@H](O)[C@H](O)[C@H]1O (stereo partly drawn) [Acarbose],scaled lipid accumulation score,library stock concentration: 3.1 mM,inactive: ≤ 0
same,scaled lipid accumulation score,[3],inactive: ≤ 0
same,scaled lipid accumulation score,[1],inactive: 0.016 and inactive: ≤ -0.001
CC(C)(C=O)Cc1cc(C(C)(C)C)c(O)c(C(C)(C)C)c1,scaled lipid accumulation score,[1],inactive: 0.21 and inactive: ≤ -0.006
C[C@@H](Oc1ccc2[nH]nc(/C=C/c3cnn(CCO)c3)c2c1)c1c(Cl)cncc1Cl,scaled lipid accumulation score,[4],inactive: ≤ 0
same,scaled lipid accumulation score,[5],inactive: ≤ 0
same,scaled lipid accumulation score,[6],inactive: ≤ 0
same,scaled lipid accumulation score,[1],inactive: 0.209
CNC1CCCN(c2c(F)cc3c(=O)c(C(=O)O)cn(C4CC4)c3c2OC)C1 (stereo not drawn) [Balofloxacin],scaled lipid accumulation score,[3],inactive: ≤ 0
same,scaled lipid accumulation score,[1],inactive: ≤ 0
NCC(O)C1CCCCCCC1 (stereo not drawn) [2-Cyclooctyl-2-hydroxyethylamine hydrochloride],scaled lipid accumulation score,[1],inactive: 0.647
CCCCC[C@H](O)/C=C/[C@@H]1[C@@H](CCCCCCC(=O)O)[C@H](O)C[C@H]1O [Prostaglandin F1.beta.],scaled lipid accumulation score,[2],inactive: ≤ 0
CN1CCC(=C2c3ccccc3C=Cc3ccccc32)CC1 [Cyproheptadine HCl],scaled lipid accumulation score,[3],inactive: 0.629
same,scaled lipid accumulation score,[1],inactive: 0.63
CN1CCC(=C2c3ccccc3C=Cc3ccccc32)CC1 [Cyproheptadine hydrochloride],scaled lipid accumulation score,library stock concentration: 6.2 mM,inactive: 0.686
CN1CCC(=C2c3ccccc3C=Cc3ccccc32)CC1 [Cyproheptadine],scaled lipid accumulation score,library stock concentration: 7 mM,inactive: 0.351
CN1CCC(=C2c3ccccc3C=Cc3ccccc32)CC1,scaled lipid accumulation score,[1],active: 1.32
CC(C)(C)NC[C@@H](O)COc1cccc2c1CCCC2=O [(+) -Levobunolol hydrochloride],scaled lipid accumulation score,,inactive: ≤ 0
CO[C@H]1/C=C/O[C@@]2(C)Oc3c(C)c(O)c4c(O)c(c(/C=N/N5CCN(C6CCCC6)CC5)c(O)c4c3C2=O)NC(=O)/C(C)=C\C=C\[C@H](C)[C@H](O)[C@@H](C)[C@@H](O)[C@@H](C)[C@H](OC(C)=O)[C@@H]1C,scaled lipid accumulation score,[1],inactive: ≤ 0 and inactive: 0.131
CO[C@H]1/C=C/O[C@@]2(C)Oc3c(C)c(O)c4c(O)c(c(/C=N/N5CCN(C6CCCC6)CC5)c(O)c4c3C2=O)NC(=O)/C(C)=C\C=C\[C@H](C)[C@H](O)[C@@H](C)[C@@H](O)[C@@H](C)[C@H](OC(C)=O)[C@@H]1C [Rifapentine],scaled lipid accumulation score,[3],inactive: ≤ 0
same,scaled lipid accumulation score,[1],inactive: ≤ 0
N=C(N)NC(=N)NCCc1ccccc1 [Phenformin hydrochloride],scaled lipid accumulation score,,inactive: 0.025
same,scaled lipid accumulation score,library stock concentration: 8.3 mM,inactive: ≤ 0
N=C(N)NC(=N)NCCc1ccccc1 [Phenformin HCl],scaled lipid accumulation score,[3],inactive: ≤ 0
same,scaled lipid accumulation score,[1],inactive: ≤ 0
CC(=O)S[C@@H]1CC2=CC(=O)CC[C@]2(C)[C@H]2CC[C@@]3(C)[C@@H](CC[C@@]34CCC(=O)O4)[C@H]12 [Spironolactone],scaled lipid accumulation score,,inactive: 0.026
same,scaled lipid accumulation score,[3],inactive: ≤ 0
same,scaled lipid accumulation score,library stock concentration: 4.8 mM,inactive: ≤ 0
same,scaled lipid accumulation score,[1],inactive: ≤ -0.001 and inactive: ≤ 0
CCCc1cc(C(N)=S)ccn1 [Protionamide],scaled lipid accumulation score,[3],inactive: ≤ 0
same,scaled lipid accumulation score,[1],inactive: ≤ 0
CCCc1cc(C(N)=S)ccn1 [Prothionamide],scaled lipid accumulation score,[1],inactive: ≤ -0.027
CCCCCCCCCCCCCCCCCC=CC(=O)O [.DELTA.2-cis Eicosenoic Acid],scaled lipid accumulation score,[2],inactive: 0.011
